Measured values as given in patent publication US11207320B2, “Compositions and methods for cancer expressing PDE3A or SLFN12” (The Broad Institute, Inc., priority 2015, dated 2021).
Further values from the same series stand in other lists.

Tested on: 766 cancer cell lines
Experiment: Large-scale cell-line viability measurements (766 cancer cell lines, 72 h, AUC)
Assay type: cell-based, human
Protocol: Cell lines were treated for 72 hours with concentrations ranging from 66.4 μM-2 nM in 2-fold step dilutions.
To characterize cellular sensitivity to DNMDP further, 766 genomically characterized cancer cell lines were screened for DMNDP sensitivity at concentrations ranging from 66.4 μM to 2 nM in 2-fold dilution steps for 72 hours. From these cell lines, 22 cell lines were categorized as sensitive with a robust Z-score lower than −4, which represented multiple lineages including multiple melanoma cell lines, amongst others (Table 1).
The sensitivity of […] cancer cell lines (CCLs) was measured drawn from 23 different lineages to DNMDP. Each cell line was plated in its preferred media in white opaque 1536-plates at a density of 500 cells/well. After incubating overnight, DNMDP was added by acoustic transfer at 16 concentrations ranging from 66.4 μM-2 nM in 2-fold steps in duplicate (Labcyte Echo 555, Labcyte Inc., Sunnyvale, Calif.). After 72 hours treatment, cellular ATP levels were measured as a surrogate for viability (CELLTITERGLO®, Promega Corporation, Madison, Wis.) according to manufacturer's protocols using a ViewLux Microplate Imager (PerkinElmer, Waltham, Mass.) and normalized to background (media-only) and vehicle (DMSO)-treated control wells.
Concentration response curves were fit using nonlinear fits to 2- or 3-parameter sigmoid functions through all 16 concentrations with the low-concentration asymptote set to the DMSO-normalized value, and an optimal 8-point dose curve spanning the range of compound-sensitivity was identified. The area under the 8-point dose curve (AUC) was computed by numeric integration as a metric for sensitivity for further analysis. Similar sensitivity measurements have been obtained for a collection of 480 other compounds, enabling analyses that identify cell lines responding uniquely to DNMDP (see Broad Institute Cancer Therapeutics Response Portal, a dataset to identify comprehensively relationships between genetic and lineage features of human cancer cell lines and small-molecule sensitivities for complete list of compounds).

[1] = cell line HL60 (HAEMATOPOIETIC AND LYMPHOID TISSUE)
[2] = cell line HPAC, PANCREAS, 72 hours
[3] = cell line HPBALL (HAEMATOPOIETIC AND LYMPHOID TISSUE)
[4] = cell line HS683 (CENTRAL NERVOUS SYSTEM)
[5] = cell line HS688AT, SKIN, 72 hours
[6] = cell line HS819T, BONE, 72 hours
[7] = cell line HSC2 (UPPER AERODIGESTIVE TRACT)
[8] = cell line HSC3, UPPER AERODIGESTIVE TRACT, 72 hours
[9] = cell line HSC4 (UPPER AERODIGESTIVE TRACT)
[10] = cell line HT29, LARGE INTESTINE, 72 hours
[11] = cell line HT55 (LARGE INTESTINE)
[12] = cell line HT115 (LARGE INTESTINE)
[13] = cell line HT1376 (URINARY TRACT)
[14] = cell line HT (HAEMATOPOIETIC AND LYMPHOID TISSUE)
[15] = cell line HUCCT1, BILIARY TRACT, 72 hours
[16] = cell line HUH1, LIVER, 72 hours
[17] = cell line HUNS1, HAEMATOPOIETIC AND LYMPHOID TISSUE, 72 hours
[18] = cell line HUPT4, PANCREAS, 72 hours
[19] = cell line IMR32, AUTONOMIC GANGLIA, 72 hours
[20] = cell line IPC298, SKIN, 72 hours
[21] = cell line ISHIKAWAHERAKLIO02ER (ENDOMETRIUM)
[22] = cell line JHH6, LIVER, 72 hours
[23] = cell line JK1 (HAEMATOPOIETIC AND LYMPHOID TISSUE)

SMILES: CCN(CC)c1ccc(C2=NNC(=O)CC2C)cc1[N+](=O)[O-] (centres unmarked) [DNMDP, 6-(4-(diethylamino)-3-nitrophenyl)-5-methyl-4,5-dihydropyridazin-3(2H)-one]
- DNMDP AUC (cell line HGC27 (STOMACH)): 6.595
- Robust Z-score (cell line HGC27 (STOMACH)): −0.04162
- DNMDP AUC [1]: 6.7796
- Robust Z-score [1]: 0.1521
- DNMDP AUC (cell line HMC18 (BREAST)): 6.8147
- Robust Z-score (cell line HMC18 (BREAST)): 0.189
- DNMDP AUC [2]: 7.1394
- Robust Z-score [2]: 0.5298
- DNMDP AUC (cell line HPAFII (PANCREAS)): 6.7751
- Robust Z-score (cell line HPAFII (PANCREAS)): 0.1474
- DNMDP AUC [3]: 6.5743
- Robust Z-score [3]: −0.06335
- DNMDP AUC [4]: 7.0975
- Robust Z-score [4]: 0.4858
- DNMDP AUC [5]: 7.1049
- Robust Z-score [5]: 0.4936
- DNMDP AUC (cell line HS746T (STOMACH)): 7.1012
- Robust Z-score (cell line HS746T (STOMACH)): 0.4897
- DNMDP AUC [6]: 7.1097
- Robust Z-score [6]: 0.4986
- DNMDP AUC (cell line HS822T (BONE)): 6.9115
- Robust Z-score (cell line HS822T (BONE)): 0.2906
- DNMDP AUC (cell line HS895T (SKIN)): 6.8118
- Robust Z-score (cell line HS895T (SKIN)): 0.1859
- DNMDP AUC (cell line HS944T (SKIN)): 6.8697
- Robust Z-score (cell line HS944T (SKIN)): 0.2467
- DNMDP AUC [7]: 6.59
- Robust Z-score [7]: −0.04687
- DNMDP AUC [8]: 7.2237
- Robust Z-score [8]: 0.6183
- DNMDP AUC [9]: 6.8327
- Robust Z-score [9]: 0.2079
- DNMDP AUC [10]: 7.364
- Robust Z-score [10]: 0.7656
- DNMDP AUC [11]: 6.6554
- Robust Z-score [11]: 0.02178
- DNMDP AUC [12]: 6.8303
- Robust Z-score [12]: 0.2054
- DNMDP AUC (cell line HT144 (SKIN)): 6.7297
- Robust Z-score (cell line HT144 (SKIN)): 0.09977
- DNMDP AUC (cell line HT1080 (SOFT TISSUE)): 6.5745
- Robust Z-score (cell line HT1080 (SOFT TISSUE)): −0.06314
- DNMDP AUC [13]: 6.7994
- Robust Z-score [13]: 0.1729
- DNMDP AUC [14]: 6.9476
- Robust Z-score [14]: 0.3285
- DNMDP AUC [15]: 7.1094
- Robust Z-score [15]: 0.4983
- DNMDP AUC [16]: 7.4298
- Robust Z-score [16]: 0.8346
- DNMDP AUC (cell line HUH6 (LIVER)): 6.6437
- Robust Z-score (cell line HUH6 (LIVER)): 0.009499
- DNMDP AUC [17]: 7.6648
- Robust Z-score [17]: 1.081
- DNMDP AUC (cell line HUPT3 (PANCREAS)): 6.837
- Robust Z-score (cell line HUPT3 (PANCREAS)): 0.2124
- DNMDP AUC [18]: 7.4555
- Robust Z-score [18]: 0.8616
- DNMDP AUC (cell line IGR39 (SKIN)): 6.6163
- Robust Z-score (cell line IGR39 (SKIN)): −0.01926
- DNMDP AUC (cell line IGROV1 (OVARY)): 7.0026
- Robust Z-score (cell line IGROV1 (OVARY)): 0.3862
- DNMDP AUC [19]: 7.4593
- Robust Z-score [19]: 0.8656
- DNMDP AUC [20]: 7.1984
- Robust Z-score [20]: 0.5917
- DNMDP AUC [21]: 6.8313
- Robust Z-score [21]: 0.2064
- DNMDP AUC (cell line JHH1 (LIVER)): 6.8737
- Robust Z-score (cell line JHH1 (LIVER)): 0.2509
- DNMDP AUC (cell line JHH2 (LIVER)): 6.9004
- Robust Z-score (cell line JHH2 (LIVER)): 0.2789
- DNMDP AUC [22]: 7.2377
- Robust Z-score [22]: 0.633
- DNMDP AUC (cell line JHOC5 (OVARY)): 6.9036
- Robust Z-score (cell line JHOC5 (OVARY)): 0.2823
- DNMDP AUC (cell line JHUEM2 (ENDOMETRIUM)): 6.608
- Robust Z-score (cell line JHUEM2 (ENDOMETRIUM)): −0.02797
- DNMDP AUC [23]: 6.9966
- Robust Z-score [23]: 0.3799
- DNMDP AUC (cell line JL1 (PLEURA)): 6.6309
- Robust Z-score (cell line JL1 (PLEURA)): −0.003936
- DNMDP AUC (cell line JURLMK1, HAEMATOPOIETIC AND LYMPHOID TISSUE, 72 hours): 8.1126
